Results published in PubChem BioAssay AID2147 (National Center for Advancing Translational Sciences (NCATS), 2009).
The campaign covered roughly 230,000 compounds. About 3,600 (1.6%) were called active. Inconclusive means that the source gave no clear call. Such entries were picked first, then a sample of the others. Calls come from the whole dose curve; as a rule, active = well fitted inhibition curve with a large enough effect (not every such curve was filed as active); inconclusive = small, poorly fitted or top-dose-only effect, or another doubt; inactive = no such curve, though single readings can be large or run the other way. Where the call is inconclusive, the potency comes from a doubtful curve fit.

biological target: Lysine-specific demethylase 4E (Homo sapiens) (UniProt B2RXH2); test: qHTS Assay for Inhibitors of Human Jumonji Domain Containing 2E (JMJD2E); conditions: JMJD2E catalytic domain, FDH-coupled NADH fluorescence (FDH is formaldehyde dehydrogenase); series mostly up to 57.1 µM; activity change, negative = inhibition: at the top concentration
UniProt B2RXH2, sequence (B2RXH2 whole entry, looked up, the tested form may be a part): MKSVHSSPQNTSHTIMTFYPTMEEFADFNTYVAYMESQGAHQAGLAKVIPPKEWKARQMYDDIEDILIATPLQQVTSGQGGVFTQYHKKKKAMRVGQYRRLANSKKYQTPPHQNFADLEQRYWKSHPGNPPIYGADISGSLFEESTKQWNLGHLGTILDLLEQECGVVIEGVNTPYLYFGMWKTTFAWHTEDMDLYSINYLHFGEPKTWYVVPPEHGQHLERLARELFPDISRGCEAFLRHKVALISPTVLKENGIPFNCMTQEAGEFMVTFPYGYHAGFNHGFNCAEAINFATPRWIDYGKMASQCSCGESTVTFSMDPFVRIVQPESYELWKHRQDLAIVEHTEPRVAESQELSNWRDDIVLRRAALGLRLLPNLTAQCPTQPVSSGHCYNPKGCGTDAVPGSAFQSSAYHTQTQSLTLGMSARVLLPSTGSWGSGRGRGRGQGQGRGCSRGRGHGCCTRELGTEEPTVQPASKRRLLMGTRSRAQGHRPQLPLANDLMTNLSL
Note: nearly all actives have a fitted effect of over 50% in size.
Potency is the fitted concentration of half-maximal effect; tags give direction and shape of the fitted curve.
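Throughout, for activity change, negative = inhibition: 0% = wells with enzyme and -100% = buffer wells without enzyme.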

Row | SMILES | Potency | activity change, negative = inhibition
1 | c1csc(-c2nn3c(Cn4nnc5ccccc54)nnc3s2)c1 | inconclusive: 39.8 µM [inhibitor, single point] | 
2 | N#Cc1nc(-c2cccc3ccccc23)oc1N1CCCCC1 | inconclusive: 2 µM [inhibitor, partial curve] | 
3 | Cc1ccccc1-c1nc(-c2ccc(NC(=O)c3cccs3)cc2)no1 | inconclusive: 39.8 µM [inhibitor, single point] | 
4 | CN(C)c1ccc(/C=N/NC(=O)C(O)(c2ccccc2)c2ccccc2)o1 |  | inactive: -26.6%
5 | CC1=NN(c2nc(-c3ccc(C)cc3)cs2)C(=O)C1N=Nc1ccc(C(N)=O)cc1 (stereo unspecified) |  | inactive: 2.7%
6 | CCN1CCCC1CNC(=O)c1cc2c(-c3ccc(Cl)cc3)nn(C)c2s1 (stereo unspecified) | inconclusive: 28.2 µM [inhibitor, partial curve] | 
7 | CCN(CC)c1ccc2c(C)c(CN3CCOCC3)c(=O)oc2c1 | inconclusive: 28.2 µM [inhibitor, partial curve] | 
8 | NC(N)=N/N=C/c1cc([N+](=O)[O-])ccc1O |  | inactive: 2.56%
9 | CCOC(=O)CSc1nnc(CNC(=O)c2ccco2)n1-c1ccc(F)cc1 | inconclusive: 39.8 µM [inhibitor, single point] | 
10 | O=C(c1ccc(-n2cccc2)cc1)N1CCOCC1 |  | inactive: 6.58%
11 | CC1Cc2ccccc2N1C(=O)CSc1ncccc1C(=O)O (stereo unspecified) |  | inactive: 1.73%
12 | COc1ccccc1N1CCN(CCn2c(=O)[nH]c3c([nH]c4ccccc43)c2=O)CC1 | inconclusive: 11.2 µM [inhibitor, full curve] | 
13 | CN(C)/C=C1/C(=O)N(c2ccc([N+](=O)[O-])cc2)N=C1c1ccccc1 | inconclusive: 35.5 µM [inhibitor, single point] | 
14 | Cc1cc(C)cc(NC(=O)Cn2ncn3c(cc4ccccc43)c2=O)c1 | inconclusive: 28.2 µM [inhibitor, partial curve] | 
15 | O=C(O)CNC(=S)N(Cc1ccccc1Cl)C1CCCC1 |  | inactive: 19.1%
16 | CC1(C)CC(=O)c2cnc(NCC3CCCO3)nc2C1 (stereo unspecified) |  | inactive: -0.224%
17 | Cc1cccc(Cc2nnc(CCC(=O)NCc3cnc4ccccn34)o2)c1 | inconclusive: 31.6 µM [inhibitor, partial curve] | 
18 | CCOC(=O)c1cccnc1SCc1cc(=O)n2ccccc2n1 | inconclusive: 28.2 µM [inhibitor, single point] | 
19 | COc1ccc(OC)c(/C=C(\NC(=O)c2ccccc2)C(=O)N/N=C/c2ccc(C)s2)c1 | inconclusive: 39.8 µM [inhibitor, single point] | 
20 | COc1ccccc1C(=O)Nc1ccc(Br)cc1C |  | inactive: -20.3%
21 | NNC(=S)Nc1ccc(S(=O)(=O)N2CCCCC2)cc1 | inconclusive: 25.1 µM [inhibitor, single point] | 
